Assay results from ChEMBL document CHEMBL4888484, “Replenishing the malaria drug discovery pipeline: Screening and hit evaluation of the MMV Hit Generation Library 1 (HGL1) against asexual blood stage Plasmodium falciparum ,using a nano luciferase reporter read-out” (2022).
Out of some 150,000 compounds screened, about 540 (0.36%) showed an effect of 50% or more. The list shows a part of the results.

Each molecule was assayed on Plasmodium falciparum (assay: Primary screen in NF54 nanoGlo assay, in single point, at 2uM, 72h; a lower Z score goes with more inhibition). Settings: timepoint 72 hour.
Type: functional, Erythrocyte
`Cc1csc2c(N3CC[C@H](N4CCCC4)C3)ncnc12` was tested, and the “% Inhibition” value was -6% and the Z score was 0.93. With `Cc1nn(Cc2ccccc2Cl)c2nc(C3CCOCC3)[nH]c12` the “% Inhibition” value was 6% and the Z score was -1.25. With `Cc1noc(C)c1CCC(=O)N1CC(OCc2ccccc2)C1` the “% Inhibition” value was -10% and the Z score was 1.42. With `O=C(O)[C@@H]1CCCN1C(=O)COCc1ccccc1` the “% Inhibition” value was -6% and the Z score was 0.88. For `CCc1ccc(S(=O)(=O)Nc2cccc(-c3ccc(N4CCC(C)CC4)nn3)c2)cc1`, the “% Inhibition” value was -7% and the Z score was 0.95. In the case of `CCN1c2cc(C(=O)N3CCCCC3)ccc2C(=O)N2CCCCC[C@H]21`, the “% Inhibition” value is reported as 32% and the Z score is reported as -4.56. For `CCOC(=O)c1cc(NC(=O)CN(C)C(C)C)c[nH]1`, the “% Inhibition” value was -12% and the Z score was 1.78. With `CC(C)Oc1ccccc1CN1CCC[C@H](N(CCN2CCCCC2)S(C)(=O)=O)C1` the “% Inhibition” value was -1% and the Z score was 0.1. In the case of `Cn1nnc2c1CCC(NC(=O)NC1CC(=O)N3CCCCC13)C2` (stereo unspecified), the “% Inhibition” value is reported as -8% and the Z score is reported as 1.35. `Cc1cc(C)cc(-n2nc(CC(N)=O)nc2-c2cc(=O)n(C)c(=O)n2C)c1` was tested, and the “% Inhibition” value was 6% and the Z score was -1.11. With `COc1ccc(OC)c(NC(=O)CC(C)C2CCCNC2)c1` (stereo unspecified) the “% Inhibition” value was -1% and the Z score was 0.16. For `Cc1csc(NC(=O)C2CCOCC2)n1`, the “% Inhibition” value was -9% and the Z score was 1.77. For `N[C@@H](CNc1ncc(Cl)cc1Br)C1CC1`, the “% Inhibition” value was -3% and the Z score was 0.46. For `CC(C)(C(=O)NC[C@H]1CCCC1(F)F)c1c[nH]cn1`, the “% Inhibition” value was 0% and the Z score was -0.04. With `N#CC1(NC(=O)c2cc(-c3cccnc3)nc3onc(C4CC4)c23)CC1` the “% Inhibition” value was -11% and the Z score was 1.36. For `CCc1ccc(-c2nc(C)c(C(=O)N3CC[C@H](N)C3)s2)cc1`, the “% Inhibition” value was -11% and the Z score was 1.19. `O=C(NCc1ccc(C(=O)N2CCOCC2)cc1)c1ccc(F)cc1F` was tested, and the “% Inhibition” value was -6% and the Z score was 0.78. In the case of `O=C(O)CN1CCN(Cc2ccccc2)C2(CCCCC2)C1`, the “% Inhibition” value is reported as -8% and the Z score is reported as 0.85. For `Cc1c(C#N)c2ncnc(NCCCN3CCOCC3)c2n1-c1ccccc1`, the “% Inhibition” value was 2% and the Z score was -0.35. In the case of `CCN1CCC[C@@H]1Cn1ncc(N(C)C)cc1=O`, the “% Inhibition” value is reported as -7% and the Z score is reported as 0.7. `Cc1nc(CCNC(=O)NC2CCCC2)no1` was tested, and the “% Inhibition” value was -12% and the Z score was 1.48. For `COCCC[C@H]1CCCN(c2nc(CO)cs2)C1`, the “% Inhibition” value was -5% and the Z score was 0.92. In the case of `O=C(CC1CCCC1)N[C@@H](Cc1ccccc1)c1ccccc1`, the “% Inhibition” value is reported as -12% and the Z score is reported as 1.67. For `CC(C)c1ccc(NC(=O)CC[C@@H]2N=C(O)N(Cc3ccccc3)C2=O)cc1`, the “% Inhibition” value was 5% and the Z score was -0.63. With `Cc1ccn(CC(=O)NC[C@H](O)C(=O)OCc2ccccc2)n1` the “% Inhibition” value was -4% and the Z score was 0.44. For `Fc1ccc(CNc2nc(-c3ccsc3)ns2)cc1`, the “% Inhibition” value was -9% and the Z score was 0.9. With `COC1CCN(C2CN(C(=O)c3ccc(Cl)s3)C2)CC1` the “% Inhibition” value was -8% and the Z score was 1.54. In the case of `Cc1cc(C(=O)N2CCN(Cc3ccccc3)C3(CCCCC3)C2)nn1C`, the “% Inhibition” value is reported as -6% and the Z score is reported as 1.02. In the case of `CCc1nnsc1C(=O)N1CC(C)OC(C)C1` (stereo unspecified), the “% Inhibition” value is reported as 8% and the Z score is reported as -1.22. `O=C(C[C@@]1(C(=O)O)CC(c2ccccc2Cl)=NO1)Nc1ccccc1` was tested, and the “% Inhibition” value was -30% and the Z score was 3.54. With `C[C@@H](CN1CCOCC1)N1CCN(Cc2nccn2C(F)F)CC1` the “% Inhibition” value was 2% and the Z score was -0.37. In the case of `CCCOc1ccc(OC2CCCCC2NC(=O)N2CC[C@@]3(O)C[C@H]3C2)cc1` (stereo partly specified), the “% Inhibition” value is reported as -10% and the Z score is reported as 1.94. `CCn1cnnc1CN(C)c1ccnc(C(=O)NCc2cccnc2)c1` was tested, and the “% Inhibition” value was 1% and the Z score was -0.22. With `COc1cc(OC)nc(Oc2cccc(Cl)c2C(=O)NS(=O)(=O)c2cccnc2)n1` the “% Inhibition” value was -30% and the Z score was 3.48. `C[C@H]1CCCN1C(=O)c1cccc(-c2nc(N(C)C)n(Cc3ccccc3)n2)c1` was tested, and the “% Inhibition” value was -8% and the Z score was 1.1. For `COc1cc([C@H]2CC(=O)Nc3c2cnn3-c2nc3ccccc3s2)ccc1OCC(N)=O`, the “% Inhibition” value was -3% and the Z score was 0.41. For `Cc1ccc2nc(N(C)Cc3snnc3C)cc(C)c2c1`, the “% Inhibition” value was 17% and the Z score was -2.22. For `COc1nc2c(cc1-c1nc(CC3CCN(C)CC3)nn1CCO)CCC2`, the “% Inhibition” value was 13% and the Z score was -1.65. With `O=C(c1csc(C(F)(F)F)n1)N1CCc2nc(-c3ccccc3Cl)sc2C1` the “% Inhibition” value was -11% and the Z score was 1.46. With `CCc1nccn1CCC(=O)N1CCc2[nH]c(-c3cccnc3)nc2C1` the “% Inhibition” value was -7% and the Z score was 1.38. In the case of `Cc1cc(NCc2ccco2)c2nncn2n1`, the “% Inhibition” value is reported as -20% and the Z score is reported as 3.95. For `Cc1cc(CNCCc2nccn2C)ccc1Cl`, the “% Inhibition” value was 9% and the Z score was -1.46. In the case of `COc1ccc(N2CCN(C(=O)C(=O)c3cccn3C)CC2)cc1`, the “% Inhibition” value is reported as -20% and the Z score is reported as 1.82.
